Data: PubChem BioAssay AID651820 (National Center for Advancing Translational Sciences (NCATS), 2012)
Out of some 340,000 compounds screened, about 12,000 (3.5%) were called active. The shares of active, inactive and inconclusive entries below differ from those in the screen. The call rests on the fitted dose curve; in most records, active means well fitted inhibition curve with a large enough effect; inconclusive means small, poorly fitted or top-dose-only effect, or another doubt; inactive means no such curve, though single readings can be large or run the other way. No potency is given beside an inconclusive call; the fits are too rough.

assay: qHTS Assay for Inhibitors of Hepatitis C Virus (HCV); conditions: Huh7.5.1 HCVcc-Cre (HCVcc is cell-culture hepatitis C virus) infection, luciferase reporter, 44 h; activity change, negative = inhibition: at 41.8 µM (top of the series) unless noted
Method in brief: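 Infectious HCVcc-Cre (~0.5 moi) was added to cells just after compound, with cells seeded 4 h earlier at 1,000 per well. Luciferase activity after 44 h culture reported infection; substrate was incubated 15 min at room temperature before reading.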
On the % scale 0 is the no-effect control and ±100 the full control effect; potency means the concentration at half of the fitted maximal effect; tags describe the fitted curve by direction and shape.

| Structure (SMILES) | Potency | activity change, negative = inhibition |
| --- | --- | --- |
| COc1ccccc1S(=O)(=O)N1CCNC(=O)C1 | inactive | – |
| COc1ccc(OC)c(NC(=O)CSc2nc(C)cs2)c1 | active: 25.1 µM | – |
| O=C(NCCCOc1cccc(CN2CCCCC2)c1)c1ccc(Cl)c(Cl)c1 | inconclusive [inhibitor, single point] | – |
| CC(Sc1nc(-c2ccccc2)cc(C(F)(F)F)n1)C(=O)N1CCOCC1 (stereo unspecified) | inconclusive [inhibitor, single point] | – |
| CN(c1ccccc1)S(=O)(=O)c1cccc(C(=O)Nc2ccc(N3CCOCC3)cc2)c1 | active: 10 µM | – |
| NC(=O)CSc1nnc(-c2cc(-c3cccs3)nc3ccccc23)o1 | inconclusive [inhibitor, full curve, poor fit] | – |
| CCCn1c(N)c(C(=O)COC(=O)c2c(C)noc2C)c(=O)n(C)c1=O | inconclusive [inhibitor, full curve] | – |
| COc1ccc(N(C)S(=O)(=O)c2cccc(C(=O)Nc3ccc(-n4cnnn4)cc3)c2)cc1 | inconclusive [inhibitor, single point] | – |
| CCCCOC(=O)Nc1cc(OC)c(Cl)cc1OC | inconclusive [inhibitor, partial curve] | – |
| CCOC(=O)c1c(-c2cccs2)csc1NC(=O)CN1CCOCC1 | inconclusive [inhibitor, partial curve] | – |
| Cc1cc(Cl)ccc1NC(=O)CCC(=O)O | inactive | – |
| COc1ccccc1C(CCNCc1ccc(N(C)C)cc1)c1ccc(OC(C)C)cc1 (stereo unspecified) | inconclusive [inhibitor, single point] | – |
| O=C(NCCc1ccc(F)cc1)C(=O)NCC1CCCN1S(=O)(=O)c1ccccc1 (stereo unspecified) | active: 11.2 µM | – |
| CC1(O)CC(c2ccc(Cl)cc2)=NN1C(=O)c1ccc([N+](=O)[O-])cc1 (stereo unspecified) | inconclusive [inhibitor, single point] | – |
| O=[N+]([O-])c1ccc(O)c(/C=N/Nc2ccccc2Cl)c1 | inconclusive [inhibitor, single point] | – |
| C/C(=N\Nc1nc(Nc2ccccc2)nc(N2CCOCC2)n1)c1cccs1 | inconclusive [inhibitor, partial curve, poor fit] | – |
| NC(=Nc1ccccc1)N(c1ccccc1)c1ccccc1 | inactive | – |
| CCCOc1ccccc1-n1sc2c(c1=S)-c1cc(OC)cc3c1N(C(=O)C3=O)C2(C)C | active: 12.6 µM | – |
| Cc1cccn2c(=O)c3cc(C(=O)NCCc4ccccc4)c(=N)n(Cc4ccco4)c3nc12 | inconclusive [inhibitor, single point] | – |
| COc1cccc(CNS(=O)(=O)c2ccc3c(c2)CC(C)N3C(=O)C2CC2)c1 (stereo unspecified) | inconclusive [inhibitor, single point] | – |
| COc1ccc(NC(=O)CCNS(=O)(=O)c2ccc3c(c2)c(=O)n(C)c(=O)n3C)c(OC)c1 | inconclusive [inhibitor, full curve] | – |
| O=C(Nc1cccc(S(=O)(=O)N2CCOCC2)c1)c1cccc(S(=O)(=O)N2CCCC2)c1 | inconclusive [inhibitor, single point] | – |
| CC(NCc1cc(Br)ccc1OCC(=O)NCc1ccccc1)c1ccccc1 (stereo unspecified) | inconclusive [inhibitor, single point] | – |
| CCn1ncc(C2=NOC(C(=O)Nc3ccc(C)cc3)C2)c1C (stereo unspecified) | inconclusive [inhibitor, single point] | – |

| Structure (SMILES) | Potency | activity change, negative = inhibition |
| --- | --- | --- |
| COc1cc(CN=C(C)c2c(O)n(C3CCCCC3)c(=O)[nH]c2=O)cc(OC)c1 | active: 10 µM | – |
| C/C(=N\NC(=O)c1ccc(O)cc1)c1cccc(NC(=O)c2ccccc2C)c1 | inactive | – |
| CSc1cccc(NC(=O)N2CCc3ccc(NC(=O)c4ccccn4)cc3C2)c1 | inconclusive [inhibitor, single point] | – |
| COc1ccc(NC(=O)CN2CCN(C3c4ccccc4-c4ccccc43)CC2)cc1 | inconclusive [inhibitor, partial curve] | – |
| Cc1ccc(NC(=O)CCc2c[nH]c3ccccc23)nc1 | inconclusive [inhibitor, full curve, poor fit] | – |
| C/C(=N/NC(=O)Cc1cc(=O)[nH][nH]1)c1ccc([N+](=O)[O-])cc1 | inactive | – |
| O=S(Cc1cc(Oc2ccccc2)nc(-c2ccccc2)n1)c1ccccc1 (stereo unspecified) | inconclusive [inhibitor, single point] | – |
| COc1ccc(N=C(C)c2c(O)[nH]c(=O)[nH]c2=O)cc1 | inactive | – |
| CN(C(=O)c1ccc(NC(=O)Cc2ccc(NC(=O)C3CCCN(S(=O)(=O)c4cccc([N+](=O)[O-])c4)C3)cc2)cc1)C1CCCC1 (stereo unspecified) | inconclusive [inhibitor, single point] | – |
| N#Cc1ccc(CN2C(=O)NC3(CCCCCC3)C2=O)cc1 | inactive | – |
| Cn1ccnc1SCC(=O)c1ccc([N+](=O)[O-])cc1 | inactive | – |
| CCN(CC)CCn1c2ccccc2c2cnc(N)c(C#N)c21 | active: 10 µM | – |
| COc1ccc(CCNc2ccc(C)cc2)cc1 | inconclusive [inhibitor, partial curve] | – |
| Cc1ccc(-c2csc3ncnc(N4CCN(c5ccccc5O)CC4)c23)cc1 | inconclusive [inhibitor, single point] | – |
| Clc1ccc(OCc2nc(-c3ccncc3)no2)c(Br)c1 | inconclusive [inhibitor, single point] | – |
| O=S(NCc1ccco1)C12CC3CC(CC(C3)C1)C2 (stereo unspecified) | inactive | – |
| Cc1ccc(S(=O)(=O)N(C)C)cc1NC(=O)CN1c2cccc3cccc(c23)S1(=O)=O | inconclusive [inhibitor, single point] | – |
| CCc1noc(C)c1C(=O)N1CCCSC1=Nc1ccccc1 | inactive | – |
| COc1ccc(CNC[C@H]2O[C@@H](n3ccc(=O)[nH]c3=O)[C@H](O)[C@@H]2O)cc1OC | active: 6.31 µM | – |
| CCCCCCC(=O)Nc1nc(C)c(-c2csc(Nc3cc(Cl)ccc3C)n2)s1 | – | inactive: -6.87% [at 8.37 µM] |
| O=C(Nc1cc(S(=O)(=O)N2CCOCC2)ccc1N1CCCC1)c1ccc(Cl)cc1 | inconclusive [inhibitor, single point] | – |
| CNc1nc(N)c([N+](=O)[O-])c(Nc2cccc(Cl)c2)n1 | active: 8.91 µM | – |
| FC(F)(F)c1cc(-c2ccco2)nc(NCc2ccco2)n1 | inconclusive [inhibitor, partial curve, poor fit] | – |
| CC(C)c1[nH]nc2c1C(C1C=CCCC1)C(C#N)=C(N)O2 (stereo unspecified) | inconclusive [inhibitor, single point] | – |

| Structure (SMILES) | Potency | activity change, negative = inhibition |
| --- | --- | --- |
| CN(C)CCCNC(=O)/C(=C/c1ccc(-c2ccc([N+](=O)[O-])cc2)o1)NC(=O)c1ccccc1 | inconclusive [inhibitor, partial curve] | – |
| O=C(COC(=O)c1ccc(OC(F)F)cc1)NC(=O)NC1CCCC1 | inconclusive [inhibitor, single point] | – |
| COC(=O)c1ccc(CSC(=N)N)o1 | inconclusive [inhibitor, single point] | – |
| CCc1ccc(-c2nc(SCC(=O)N3CCOCC3)n[nH]2)cc1 | inactive | – |
| COc1ccc(-c2csc(NC(=O)Cc3cc(OC)c(OC)c(OC)c3)n2)cc1OC | inconclusive [inhibitor, partial curve, poor fit] | – |
| N#Cc1ccc(C(=O)N(Cc2ccco2)c2c(N)n(Cc3ccccc3)c(=O)[nH]c2=O)cc1 | inactive | – |
| C=CCn1c(COc2ccccc2)nnc1SCc1ccc(C#N)cc1 | inactive | – |
| CN(C)/C=C/C(=O)c1cnc(-c2ccccc2)s1 | inactive | – |
| COc1cc(/C=C(/C)[N+](=O)[O-])ccc1OCc1ccccc1Cl | inconclusive [inhibitor, single point] | – |
| CCCC(CCC)=NNC(=O)c1ccccc1F | inactive | – |
| CCCc1ccc2oc(C(=O)N(Cc3ccncc3)CC3CCCO3)c(C)c2c1 (stereo unspecified) | inconclusive [inhibitor, single point] | – |
| Cc1ccc2nc(C)cc(N3CCOCC3)c2c1 | active: 10 µM | – |
| O=C(Nc1ccncc1)c1ccc(Cl)c(S(=O)(=O)N2CCc3ccccc32)c1 | active: 10 µM | – |
| COc1nc(-c2ccccc2)cc(-c2ccc(OC)c(OC)c2)n1 | active: 1.78 µM | – |
| CC(=O)Nc1ccc(S(=O)(=O)N2c3ccc(F)cc3CCC2C)cc1 (stereo unspecified) | inactive | – |
| Cc1ccccc1OCC(=O)Nc1ccccc1-c1ccccc1 | inconclusive [inhibitor, single point] | – |
| Cn1nc(CC(=O)Nc2ccc(N3CCN(C(=O)OC(C)(C)C)CC3)cc2)c2ccccc2c1=O | inconclusive [inhibitor, full curve] | – |
| COc1cc(Cl)ccc1OCc1cc(C(=O)N(C)Cc2cccc3cnccc23)no1 | active: 8.91 µM | – |
| CCOc1ccc(CCN2C(=S)N([C@@H](CC(C)C)CN3CCCC3CN3C(=S)NC[C@@H]3Cc3ccc(O)cc3)C[C@@H]2Cc2ccc(O)cc2)cc1 (stereo partly specified) | active: 11.2 µM | – |
| O=C(NN1CCOCC1)c1cc(-c2cccc(Cl)c2)nc2ccccc12 | inconclusive [inhibitor, single point] | – |
| O=C(Oc1c(-c2ccccc2)c(=O)n2c3c(cccc13)CC2)c1cccc([N+](=O)[O-])c1 | inactive | – |
| Cc1ccc(Cn2ccc(NC(=O)c3cc(C)on3)n2)cc1 | inactive | – |
| C/C(=N\N1CCCCC1c1cccnc1)c1c(O)n(C2CCCCC2)c(=S)[nH]c1=O (stereo unspecified) | inconclusive [inhibitor, partial curve, poor fit] | – |
